Substitutions are numbered along the chain they refer to.
Tests used:
[1] = target: human IL-6 (Homo sapiens, UniProt P05231); assay: ProteOn kinetic analysis (SPR); format: binding; conditions: Z variant immobilized, hIL-6 analyte, 1:1 model; purified under denatured conditions
Description: Kinetic constants (kon and koff) and affinities (KD) for human IL-6 were determined for 6 His6-tagged Z variants purified under denatured conditions. The IL-6 binding variants Z06814 (SEQ ID NO:1512), Z14861 (SEQ ID NO:4), Z014976 (SEQ ID NO:1), Z14984 (SEQ ID NO:5), Z15015 (SEQ ID NO:2), and Z15122 (SEQ ID NO:3) were diluted to 5 μg/ml in 10 mM NaAc buffer, pH 4.5, and immobilized separately on GLC chip (Bio-Rad, cat. no. 176-5011). The immobilization was performed using amine coupling chemistry according to the manufacturer's recommendations and PBST 0.05% was used as running buffer. PBST 0.05% was also used as running buffer in the kinetic experiment using a flow rate was 60 μl/min. The analyte hIL-6 was diluted in the PBST 0.05% running buffer to final concentrations of 50 nM, 12.5 nM, 3.1 nM, 0.78 nM, 0.19 nM and 0 nM and injected in triplicate for 3 min, followed by dissociation in running buffer for 90 min. After dissociation, the surfaces were regenerated with HCl supplemented with 0.05% Tween 20. Kinetic constants were calculated from the sensorgrams using a 1:1 model in Bio-Rad manager Software (Bio-Rad).

[2] = CD variable temperature measurement, melting temperature; format: physicochemical
Description: A subset of the purified His6-tagged Z variants was diluted to 0.5 mg/ml in PBS. For each diluted Z variant, a CD spectrum at 250-195 nm was obtained at 20° C. In addition, a variable temperature measurement (VTM) was performed to determine the melting temperature (Tm). In the VTM, the absorbance was measured at 221 nm while the temperature was raised from 20 to 90° C., with a temperature slope of 5° C./min. The CD measurements were performed on a Jasco J-810 spectropolarimeter (Jasco Scandinavia AB) using a cell with an optical path-length of 1 mm.
CD analysis was performed as described in Example 2 using Z variants purified under native conditions.

[3] = Example 2, His6-tagged, 0.5 mg/ml in PBS, 221 nm, 20 to 90° C.
[4] = Example 7, His6-tagged matured Z variants purified under native conditions

human IL-6, sequence (P05231 29-212): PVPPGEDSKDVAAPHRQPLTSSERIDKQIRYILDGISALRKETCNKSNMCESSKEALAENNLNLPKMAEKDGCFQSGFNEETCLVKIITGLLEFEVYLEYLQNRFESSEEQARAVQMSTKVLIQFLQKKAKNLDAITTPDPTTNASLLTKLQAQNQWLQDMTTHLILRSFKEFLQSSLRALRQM

B1: His6-Z06814: primary IL-6 binding Z variant SEQ ID NO:1512, MGSSHHHHHHLQ-[Z]-VD (protein)
chain: MGSSHHHHHHLQVDAKYAKEEQRAWREIHLLPNLTIEQMAAFIWKLLDDPSQSSELLSEAKKLNDSQAPKVD
For B1, the koff [1] was 8.8e-05 s⁻¹, the kon [1] was 430000 M⁻¹ s⁻¹ and the Tm [2, 3] was 49 °C.

B2: His6-Z06829: primary IL-6 binding Z variant SEQ ID NO:1513, MGSSHHHHHHLQ-[Z]-VD (protein)
chain: B1 chain with R26T, L30V, I36V, E37S, A40S, W44S, L47F
B2 showed a Tm [2, 3] of 40 °C.

B3: His6-Z06779: primary IL-6 binding Z variant SEQ ID NO:1504, MGSSHHHHHHLQ-[Z]-VD (protein)
chain: B1 chain with Q22R, R23S, R26F, L30T, I36V, E37Q, M39I, L47Y
B3 showed a Tm [2, 3] of 51 °C.

B4: His6-Z06789: primary IL-6 binding Z variant SEQ ID NO:1505, MGSSHHHHHHLQ-[Z]-VD (protein)
chain: B1 chain with Q22R, R23Q, R26W, L30S, I36V, E37D, W44V, L47M
With B4 the Tm [2, 3] was 52 °C.

B5: His6-Z06792: primary IL-6 binding Z variant SEQ ID NO:1507, MGSSHHHHHHLQ-[Z]-VD (protein)
chain: B1 chain with Q22R, R23D, R26H, H29Q, L30I, E37T, W44S, L47F
Work on B5 yielded a Tm [2, 3] of 48 °C.

B6: His6-Z06799: primary IL-6 binding Z variant SEQ ID NO:1508, MGSSHHHHHHLQ-[Z]-VD (protein)
chain: B1 chain with R26T, L30V, I36V, E37Q, W44T, L47F
In the case of B6, the Tm [2, 3] is reported as 44 °C.

B7: His6-Z06809: primary IL-6 binding Z variant SEQ ID NO:1511, MGSSHHHHHHLQ-[Z]-VD (protein)
chain: B1 chain with Q22R, R23D, L30A, I36V, E37D, M39L, A40V, W44T, L47F
In the case of B7, the Tm [2, 3] is reported as 51 °C.

B8: His6-Z15015: Z15015 (SEQ ID NO:2) as MGSSHHHHHHLQ-[Z]-VD (protein)
chain: B1 chain with Q22R, R23D, R26W, L30A, I36V, W44T, L47F
B8 showed a koff [1] of 7.2e-05 s⁻¹, a kon [1] of 430000 M⁻¹ s⁻¹ and a Tm [2, 4] of 56 °C.

B9: His6-Z15122: Z15122 (SEQ ID NO:3) as MGSSHHHHHHLQ-[Z]-VD (protein)
chain: B1 chain with Q22R, R23H, R26Y, E37D, W44S, L47F
B9 gave a koff [1] of 3.9e-05 s⁻¹ and a kon [1] of 310000 M⁻¹ s⁻¹.

B10: His6-Z14861: Z14861 (SEQ ID NO:4) as MGSSHHHHHHLQ-[Z]-VD (protein)
chain: B1 chain with Q22R, R23K, R26I, L30N, E37D, W44T, L47F
With B10 the koff [1] was 6.3e-05 s⁻¹, the kon [1] was 360000 M⁻¹ s⁻¹ and the Tm [2, 4] was 48 °C.

B11: His6-Z14976: Z14976 (SEQ ID NO:1) as MGSSHHHHHHLQ-[Z]-VD (protein)
chain: B1 chain with Q22R, R23K, R26Y, I36V, W44T, L47F
Work on B11 yielded a koff [1] of 2.7e-05 s⁻¹ and a kon [1] of 310000 M⁻¹ s⁻¹.

B12: His6-Z14984: Z14984 (SEQ ID NO:5) as MGSSHHHHHHLQ-[Z]-VD (protein)
chain: B1 chain with Q22K, R23Q, E37D, W44T, L47F
For B12, the koff [1] was 7.4e-05 s⁻¹ and the kon [1] was 300000 M⁻¹ s⁻¹.

B13: His6-Z14862: Z14862 (SEQ ID NO:10) as MGSSHHHHHHLQ-[Z]-VD (protein)
chain: B1 chain with Q22A, R23A, E37D, W44T, L47F
Molecule B13 has a Tm [2, 4] of 53 °C.

B14: His6-Z15036: Z15036 (SEQ ID NO:11) as MGSSHHHHHHLQ-[Z]-VD (protein)
chain: B1 chain with Q22Y, R23E, R26F, L30A, I36V, W44T, L47F
In the case of B14, the Tm [2, 4] is reported as 59 °C.

B15: His6-Z15110: Z15110 (SEQ ID NO:12) as MGSSHHHHHHLQ-[Z]-VD (protein)
chain: B1 chain with Q22R, R26T, L30S, E37D, W44T, L47F
With B15 the Tm [2, 4] was 50 °C.

B16: His6-Z15142: Z15142 (SEQ ID NO:14) as MGSSHHHHHHLQ-[Z]-VD (protein)
chain: B1 chain with Q22R, R23M, R26Y, L30S, I36V, E37D, W44T, L47F
In the case of B16, the Tm [2, 4] is reported as 53 °C.

B17: His6-Z11632: Z11632 (SEQ ID NO:7) as MGSSHHHHHHLQ-[Z]-VD (protein)
chain: B1 chain with Q22R, R23E, R26F, L30T, I36V, E37S, W44S, L47F
B17 gave a Tm [2, 4] of 51 °C.

B18: His6-Z14630: Z14630 (SEQ ID NO:6) as MGSSHHHHHHLQ-[Z]-VD (protein)
chain: B1 chain with Q22K, R23F, R26W, L30K, I36V, E37D, M39V, W44T, L47F
Molecule B18 has a Tm [2, 4] of 57 °C.

B19: His6-Z14700: Z14700 (SEQ ID NO:8) as MGSSHHHHHHLQ-[Z]-VD (protein)
chain: B1 chain with Q22R, R23H, R26F, L30K, I36V, E37D, W44T, L47F
For B19, the Tm [2, 4] was 53 °C.

B20: His6-Z14712: Z14712 (SEQ ID NO:9) as MGSSHHHHHHLQ-[Z]-VD (protein)
chain: B1 chain with Q22Y, R23L, R26N, L30K, I36V, E37D, W44T, L47F
B20 gave a Tm [2, 4] of 55 °C.

Source: patent US10669314B2, “Polypeptide” (Affibody AB, priority 2014, dated 2020)
